For test [1], the target named is coilin R36A fused to CFP or YFP (human) (UniProt P38432). Description: FRET or BRET; acceptor photobleaching FRET between CFP (donor) and YFP (acceptor) fusions co-expressed in HeLa cells, fixed in 2% paraformaldehyde; apparent FRET efficiency; Fig. 4c, d.
For test [2], the target named is coilin R8A-GFP (human) (UniProt P38432). Description: co-IP; coilin-GFP bait transfected into HeLa cells; Pierce lysis buffer with protease inhibitors, clarified lysate; goat anti-GFP overnight, Protein G magnetic beads, three washes; endogenous prey detected by Western blot. In general terms: Immunoblotting shows a protein as a band on a membrane.
The target of test [3] is coilin R36A-GFP (human) (UniProt P38432). Described as above.
For test [4], the target named is coilin D79A-GFP (human) (UniProt P38432). The description is as above.
The target of test [5] is wild-type coilin-GFP (human) (UniProt P38432). The test is described as above.
Test [6] concerns the target coilin R8A fused to CFP or YFP (human) (UniProt P38432). Description: FRET or BRET; acceptor photobleaching FRET between CFP (donor) and YFP (acceptor) fusions co-expressed in HeLa cells, fixed in 2% paraformaldehyde; apparent FRET efficiency; Fig. 4c, d.

Sequences of proteins named here, by UniProt entry; tags and fusion partners are left off. A change or cut given only in a name is not applied to a line headed by its entry.
UniProt P38432: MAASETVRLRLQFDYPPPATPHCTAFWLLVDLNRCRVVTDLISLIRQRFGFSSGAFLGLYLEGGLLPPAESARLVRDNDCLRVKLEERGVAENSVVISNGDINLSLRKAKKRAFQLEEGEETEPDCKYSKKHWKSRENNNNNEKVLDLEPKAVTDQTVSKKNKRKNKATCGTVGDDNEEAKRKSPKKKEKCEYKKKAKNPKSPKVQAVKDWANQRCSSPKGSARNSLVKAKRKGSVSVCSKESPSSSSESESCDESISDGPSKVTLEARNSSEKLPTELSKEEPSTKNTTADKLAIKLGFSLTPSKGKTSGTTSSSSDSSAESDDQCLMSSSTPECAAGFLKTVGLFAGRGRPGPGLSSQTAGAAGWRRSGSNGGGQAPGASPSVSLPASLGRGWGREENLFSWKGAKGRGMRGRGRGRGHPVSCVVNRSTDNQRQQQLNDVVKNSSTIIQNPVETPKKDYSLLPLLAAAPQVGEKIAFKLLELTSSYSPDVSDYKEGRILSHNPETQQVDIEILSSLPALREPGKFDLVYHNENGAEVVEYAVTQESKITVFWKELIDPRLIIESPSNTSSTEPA

Experimental findings from PMC9556525 are described below.

No constants are given. Whether binding was seen depends on the method and setting. Binding seen in cells or lysates may run through a third protein. Some binding calls cover weakened binding; strength is not graded here. For some assays here: Sequences can lack the tags named with a protein.

Consider “coilin R36A fused to CFP or YFP (from UniProt P38432 1-576)”, for which the binding result in test [1] was “binds”.

In the case of “endogenous coilin (from UniProt P38432 1-576)”, the binding result in test [2], in test [3] and in test [4] was “binds” each time.

B1: endogenous Nopp140 (protein, UniProt Q14978 1-699)
chain: MADAGIRRVVPSDLYPLVLGFLRDNQLSEVANKFAKATGATQQDANASSLLDIYSFWLKSAKVPERKLQANGPVAKKAKKKASSSDSEDSSEEEEEVQGPPAKKAAVPAKRVGLPPGKAAAKASESSSSEESSDDDDEEDQKKQPVQKGVKPQAKAAKAPPKKAKSSDSDSDSSSEDEPPKNQKPKITPVTVKAQTKAPPKPARAAPKIANGKAASSSSSSSSSSSSDDSEEEKAAATPKKTVPKKQVVAKAPVKAATTPTRKSSSSEDSSSDEEEEQKKPMKNKPGPYSSVPPPSAPPPKKSLGTQPPKKAVEKQQPVESSEDSSDESDSSSEEEKKPPTKAVVSKATTKPPPAKKAAESSSDSSDSDSSEDDEAPSKPAGTTKNSSNKPAVTTKSPAVKPAAAPKQPVGGGQKLLTRKADSSSSEEESSSSEEEKTKKMVATTKPKATAKAALSLPAKQAPQGSRDSSSDSDSSSSEEEEEKTSKSAVKKKPQKVAGGAAPSKPASAKKGKAESSNSSSSDDSSEEEEEKLKGKGSPRPQAPKANGTSALTAQNGKAAKNSEEEEEEKKKAAVVVSKSGSLKKRKQNEAAKEAETPQAKKIKLQTPNTFPKRKKGEKRASSPFRRVREEEIEVDSRVADNSFDAKRGAAGDWGERANQVLKFTKGKSFRHEKTKKKRGSYRGGSISVQVNSIKFDSE
Turning to B1, the results for the binding result in test [2], in test [5] and in test [3] were “no binding”, “binds” and “no binding”, respectively.

B2: Nopp140-YFP (protein, UniProt Q14978 1-699)
chain: MADAGIRRVVPSDLYPLVLGFLRDNQLSEVANKFAKATGATQQDANASSLLDIYSFWLKSAKVPERKLQANGPVAKKAKKKASSSDSEDSSEEEEEVQGPPAKKAAVPAKRVGLPPGKAAAKASESSSSEESSDDDDEEDQKKQPVQKGVKPQAKAAKAPPKKAKSSDSDSDSSSEDEPPKNQKPKITPVTVKAQTKAPPKPARAAPKIANGKAASSSSSSSSSSSSDDSEEEKAAATPKKTVPKKQVVAKAPVKAATTPTRKSSSSEDSSSDEEEEQKKPMKNKPGPYSSVPPPSAPPPKKSLGTQPPKKAVEKQQPVESSEDSSDESDSSSEEEKKPPTKAVVSKATTKPPPAKKAAESSSDSSDSDSSEDDEAPSKPAGTTKNSSNKPAVTTKSPAVKPAAAPKQPVGGGQKLLTRKADSSSSEEESSSSEEEKTKKMVATTKPKATAKAALSLPAKQAPQGSRDSSSDSDSSSSEEEEEKTSKSAVKKKPQKVAGGAAPSKPASAKKGKAESSNSSSSDDSSEEEEEKLKGKGSPRPQAPKANGTSALTAQNGKAAKNSEEEEEEKKKAAVVVSKSGSLKKRKQNEAAKEAETPQAKKIKLQTPNTFPKRKKGEKRASSPFRRVREEEIEVDSRVADNSFDAKRGAAGDWGERANQVLKFTKGKSFRHEKTKKKRGSYRGGSISVQVNSIKFDSE
B2: in test [6], the binding entry is “no binding”.
